This is one part of the list.

The target in the assay is T1, OsWOX13 (Oryza sativa, UniProt Q5QMM3 1-267).
T1 sequence: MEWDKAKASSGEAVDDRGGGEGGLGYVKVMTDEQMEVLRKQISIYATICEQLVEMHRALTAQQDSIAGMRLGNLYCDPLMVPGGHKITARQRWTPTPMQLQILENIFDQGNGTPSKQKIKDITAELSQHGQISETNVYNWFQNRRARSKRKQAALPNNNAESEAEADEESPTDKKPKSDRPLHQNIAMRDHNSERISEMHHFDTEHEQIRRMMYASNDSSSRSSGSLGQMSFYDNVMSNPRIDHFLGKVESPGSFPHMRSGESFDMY
Put plainly: protein-binding microarray (RPBM); PBS, 2% BSA, 51.3 ng/ul salmon testes DNA, 50 uM zinc acetate, 200 nM TF, 25 C, 1 h; high values mean tight binding. The conditions noted are these: protein: recombinant; tags: N-terminal polyhistidine and DsRed monomer fusion (pET32a); label: CyDye5-dUTP incorporated in the synthesized complementary strand; 3' TTTTT single-stranded linker to array surface; dsDNA, one strand shown. In short, it runs like this:
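In PBS with 2% BSA, salmon testes DNA and 50 µM zinc acetate, 200 nM protein was incubated on a custom Agilent array at 25 °C for 1 h and then washed off. The array had been made double-stranded by primer extension with Cy5-dUTP and blocked with 2% BSA. The proteins were transcription factors fused N-terminally to polyhistidine and DsRed, expressed in E. coli BL21-CodonPlus and purified on Ni–NTA. The binding signal is per-feature fluorescence intensity (arbitrary units) from an Axon 4000B scanner.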
Take “AATTGAATGGCTAATTAAGAGACCAAGTCTTTCACACCATCGGAGTCACCTAGTGCAG”: the binding signal is 15300 fluorescence intensity (a.u.).
For “ATTAAATTGAAAATTAAATGTACGAGAATCGTCCATGTCACGGAGTCACCTAGTGCAG” the value was 50900 fluorescence intensity (a.u.); for “CATCAATGATGGAATTATGTAATTAAGGTTAGTGCAAAGACGGAGTCACCTAGTGCAG”, 23600 fluorescence intensity (a.u.); for “ATATAAATCATGTATATAAACAACAATTCATGCAATTCACCGGAGTCACCTAGTGCAG”, 5650 fluorescence intensity (a.u.).
For “GAGTATAATTTTATTATTTCATTGAGCCCATGGTTGAACCCGGAGTCACCTAGTGCAG” the value was 5230 fluorescence intensity (a.u.); for “TCCACTGTCATCAATATTGTAATTATTTATGGCGAATTTTCGGAGTCACCTAGTGCAG”, 6310 fluorescence intensity (a.u.); for “GTCAAATCAAGAAGTAATCAGTTGCAAATCCTCGATCAGCCGGAGTCACCTAGTGCAG”, 8770 fluorescence intensity (a.u.).
For “GTCAATTAAATTCACAGTCACGTACGTTGGTCCGACTAATCGGAGTCACCTAGTGCAG” the value was 7040 fluorescence intensity (a.u.); for “CCATTTAATTTATTTTACTCGGCCTGCATAGCGGAGAGGTCGGAGTCACCTAGTGCAG”, 18200 fluorescence intensity (a.u.).
Regarding “GCTGCAACCAAATTAATTTCGTAAGCATATTAGTATATACCGGAGTCACCTAGTGCAG”, the binding signal was 5820 fluorescence intensity (a.u.).
For “GATGATTGGCATATGTAACATGTCGGAGGTTACGAACTATCGGAGTCACCTAGTGCAG” the value was 43100 fluorescence intensity (a.u.).
For “AAGATTCTATACTTTGATTGAAAAGTATAGTCTAATTATTCGGAGTCACCTAGTGCAG” the value was 9870 fluorescence intensity (a.u.).
“CTCCTCCGTCTCCTACCCCTTTCTCGCCTTCCCCAACTTTCGGAGTCACCTAGTGCAG”: the binding signal is 3410 fluorescence intensity (a.u.).
For “ATAGATTAATGAATTATATGCCTCGTCATTTGGTGAAATACGGAGTCACCTAGTGCAG” the value was 9390 fluorescence intensity (a.u.).
For “TTGAATTGAGAAGAATGAGAGAGATTGTTAAAGTAGGGAGCGGAGTCACCTAGTGCAG” the value was 3790 fluorescence intensity (a.u.); for “ATGAATGATTAAATGTGTGACGAAAAGTGAATCGAACGTACGGAGTCACCTAGTGCAG”, 30700 fluorescence intensity (a.u.); for “ATATGATTTATAAGCCAGTGGATTTAATGTCCTAAGTTTACGGAGTCACCTAGTGCAG”, 27000 fluorescence intensity (a.u.).
For “AGTAGCCATAATTGGACTCGAACATCTGAGAAGCTGCGGCCGGAGTCACCTAGTGCAG” the value was 5600 fluorescence intensity (a.u.).
As to “CATTGATTTACTATTTCTTAACAAATCCCGGCCCATTTCTCGGAGTCACCTAGTGCAG”, the binding signal was 23800 fluorescence intensity (a.u.).
As for “TATATTAACAAGAGTAAATTAACCCTCGGTACATGTACTGCGGAGTCACCTAGTGCAG”, the binding signal is 4080 fluorescence intensity (a.u.).
For “ATTTCTTCAATTGATGGATATTTAGGCATGCATCAAGTTGCGGAGTCACCTAGTGCAG” the value was 11600 fluorescence intensity (a.u.); for “CTAAATTTATTCCCATACACATACAACCACAAGCAAATATCGGAGTCACCTAGTGCAG”, 4840 fluorescence intensity (a.u.).
Take “ACGAAAATCAAATTTGTTGACAAGTTAAGGGACCTTAAATCGGAGTCACCTAGTGCAG”: the binding signal is 3740 fluorescence intensity (a.u.).
For “ATAACTGACACCTTTCCATTTTAAAATTGCACATGCATTGCGGAGTCACCTAGTGCAG” the value was 6850 fluorescence intensity (a.u.).
For “ATATAATTTGTTCATATGTATCCTCAAATAACTACTTGATCGGAGTCACCTAGTGCAG” the value was 30500 fluorescence intensity (a.u.).
For “CTCTGATTGTTCATCACTTATTATTTTCTTTGAGACCAGACGGAGTCACCTAGTGCAG” the value was 44700 fluorescence intensity (a.u.); for “CAAAACCAAGATTTTAATTTAAAATATAATCTCACGATTTCGGAGTCACCTAGTGCAG”, 5110 fluorescence intensity (a.u.).
“TACTTTGATTTGGGATTTGGGGATATGCATCCCACTTAATCGGAGTCACCTAGTGCAG”: the binding signal is 14100 fluorescence intensity (a.u.).
For the sequence “TTAAGTAATTATTAATTCTTTTCCTATCATTTGATTCATCCGGAGTCACCTAGTGCAG”, the binding signal was 10900 fluorescence intensity (a.u.).
For “CTTCCAATTTGAGATTTGAAAATTTTCAACTCGAAATTCGCGGAGTCACCTAGTGCAG” the value was 8620 fluorescence intensity (a.u.).
“TCCAAATCCTACAATAATTGATTGAATCAAACACAGAAAGCGGAGTCACCTAGTGCAG”: the binding signal is 41200 fluorescence intensity (a.u.).
For “TATTATTTATTTTATTTGTGATTTGCTTTATTATCCACAGCGGAGTCACCTAGTGCAG” the value was 7870 fluorescence intensity (a.u.); for “TTTGATATCCAATCAATCAACCGATGTGACATCTAAAATTCGGAGTCACCTAGTGCAG”, 25200 fluorescence intensity (a.u.); for “ACTATCAATCAAAGATGCAAATTTTATAAAGTATATAAAACGGAGTCACCTAGTGCAG”, 5210 fluorescence intensity (a.u.).
As for “TGGAAATTGGATGCTAAAGCTTTGTTTGCTTCCAACGACACGGAGTCACCTAGTGCAG”, the binding signal is 7250 fluorescence intensity (a.u.).
For “CTAAATTTTCTAGAACTATATTTACAGTACCGCTCAAGAACGGAGTCACCTAGTGCAG” the value was 7340 fluorescence intensity (a.u.).
For “GGTGTATAATTAAATTAGTTTACAAGTAAAGTAAGTGTGACGGAGTCACCTAGTGCAG” the value was 13000 fluorescence intensity (a.u.); for “TTAATTAATCAATTTCCTATTTATTTCATGGCATGTAGGACGGAGTCACCTAGTGCAG”, 41800 fluorescence intensity (a.u.).
For “TGGATGCTTAATTGGGTTTAGGCCCATTATATTGAAGCCTCGGAGTCACCTAGTGCAG” the value was 7080 fluorescence intensity (a.u.).
On to “TGCACAATCCGACTGTAAATTACGAGATGAATCTTTTGAGCGGAGTCACCTAGTGCAG”, for which the binding signal was 4110 fluorescence intensity (a.u.).
For “GGATTAATAGATAGTCTGACTTTTCTGATAACTATTTAAGCGGAGTCACCTAGTGCAG” the value was 28400 fluorescence intensity (a.u.); for “CAAGATTGAACGAAATTTTAATGAAGCTTGATTCTTTATTCGGAGTCACCTAGTGCAG”, 35900 fluorescence intensity (a.u.).

(Values after article PMC7819943, “Rice protein-binding microarrays: a tool to detect cis-acting elements near promoter regions in rice”.)
